# Reference: the RNAGym collection of RNA variant scans (doi:10.1093/nar/gkz1192)
# The source gives no read counts; variants with many changes may rest on few reads.
# B1: CPEB3 Ribozyme (parent)
# chain: UAACAGGGGGCCACAGCAGAAGCGUUCACGUCGCAGCCCCUGUCAGAUUCUGGUGAAUCUGCGAAUUCUGCUGUAUAUCUC
# Variants of: B1
# Experiment: self-cleavage, relative activity (ratio to wild type); higher = more cleavage; in vitro, sequencing
# How it was run: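 CPEB3 self-cleaving ribozyme mutant libraries were made by rounds of error-prone PCR, barcoded, and transcribed in vitro with T7 RNA polymerase for 5 hours at 37°C. Cleavage occurred during transcription and a 15 min DNase I step before EDTA stop. RNAs were reverse transcribed with template switching and Illumina-sequenced, with DNA sequencing mapping barcodes to variants. Relative activity is the variant's cleaved/total read fraction divided by wild type's (minimum 5 reads), averaged across three batches.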
row,Variant,self-cleavage
1,UAACAGGGGGCCACAGCAGGAGCGUUCACGUCGCAGGCCCUGUCAGAUUCUGGUGAAUCUGCGAAUUCUGCUGUAUAUCCC [A20G C37G U80C],0.83
2,UAACAGGGGGCCACAGCAGGAGCGUUCACGUGGCAGCCCCUGUCAGAUUCUGGCGAAUCUGCGAAUUCUGCUGUAUAUCUC [A20G C32G U54C],0.09
3,UAACAGGGGGCCACAGCAGGAGCGUUCACGUCGCAGCCCAUGUCAGAUUCUGGUGAAUCUGCGAAUUCUGCAGUAUAUCUC [A20G C40A U72A],0.21
4,UAACAGGGGGCCACAGCAGGAGCAUUCACGUCGCAGCCCCUGUCGGAUUCUGGUGAAUCUGCGAAUACUGCCGUAUAUCUC [A20G G24A A45G U67A U72C],0.06
5,UAACAGGGGGCCACAGCAGGAGCCUUCACGUCGCAGCCCCUGUCAGAUUCUGGUGAAUCUGCGAAUCCUGCUGUAUAUCUC [A20G G24C U67C],0.14
6,UAACAGGGGGCCACAGCAGGAGCGUUCACGUCGUAGCCCCCGCCAGACUCUGGUGAAUCUGCGAAUUCCGCUGUAUUUCUC [A20G C34U U41C U43C U48C U69C A77U],0.05
7,UAACAGGGGGCCACAGCAGGAGCAUUCACGACGCAGCCCCAGUCUGAUUCUGGUGAAUCUGCGAAUUCCGCUGUAUAUCUC [A20G G24A U31A U41A A45U U69C],0.14
8,UAACAGGGGGCCACAGCAGGAUCGUUCGCGCCGCAGCCCCUGUCAGAUUCUGGUGAAUCUGCGAAUUCUGCUGUAUGUCUC [A20G G22U A28G U31C A77G],0.08
9,UAACAGGGGGCCACAGCAGGAGCGUUCACGUCGCAGCUCCUGACAGAUUCUGGUGAAUCUGCGAAUUCUACCGUAUAUCUC [A20G C38U U43A G70A U72C],0.06
10,UAACAGGGGGCCACAGCAGGAGCGUUCACGUCGCAGCCGCUGUCAGAUUCAGGUGUAUCUGCGAAUUCCGCUGUAUAUCUC [A20G C39G U51A A56U U69C],0.06
11,UAACAGGGGGCCACAGCAGGAACGUUCACGUCGCAGCCCCUGUCAGAUUCUGGCGAAUCUGCGAAUUCUGCUGUAUAUCUC [A20G G22A U54C],0.35
12,UAACAGGGGGCCACAGCAGGAGCGUUCACGUCGCAGUCCCUGUCAGAUUCCGGUGAAUCUGCGAAUUCUGCUGUAUAUCCC [A20G C37U U51C U80C],0.28
13,UAACAGGGGGCCACAGCAGGAGCGUUCACGUCGCAGCCCCUGUCAGAUUUUGGUGAAUCUGCGAAUUCUGCUGUAUACCUC [A20G C50U U78C],0.94
14,UAACAGGGGGCCACAGCAGGAGCGUUCACGUCGCAGCGCCUGUCGGAUUCUGGUGAAUCUGCGGAUUCUGCUGUAUAUCUC [A20G C38G A45G A64G],0.12
15,UAACAGGGGGCCACAGCAGGAGCGUUCACGUUGCAGCUCCUGUCAGUUUCUGGUGAAUCUGCGAAUUCUGCUGUAUAUCUC [A20G C32U C38U A47U],0.07
16,UAACAGGGGGCCACAGCAGGAGCGUUCACGUCGCAGCCCCUGUCAGAUUCUGGUGAAUCUGCGAAUUCUGUCGUAUAUCUC [A20G C71U U72C],0.35
17,UAACAGGGGGCCACAGCAGGAGCGUUCACGUCGUAGCCCCUGUCAGAUUCCGGUGAAUCUGCGAAUCCUGCUGUAUACCUC [A20G C34U U51C U67C U78C],0.22

row,Variant,self-cleavage
1,UAACAGGGGGCCACAGCAGGAGCAUUCUCGUCGCAGCCCCUGUCAGUUUCUGGUGUAUCUGCGAAUUCUGCUGUAUAUCUC [A20G G24A A28U A47U A56U],0.07
2,UAACAGGGGGCCACAGCAGGAGCGUUCACGUCGCAGCCCCUGUCAGAUUGUGGAGAAUCUGCGAAUUCUGCUGUAUAUCUC [A20G C50G U54A],0.76
3,UAACAGGGGGCCACAGCAGGAGCAUUCACGGCGCAGCCCAUGUCUGAUUCUGGUGAGUCUGCGUAUUCUGCUGUAUAUCUC [A20G G24A U31G C40A A45U A57G A64U],0.08
4,UAACAGGGGGCCACAGCAGGAGCGUUCACGUCGUAGCCCCUGUCAGAUUCUGGUGAAUCUGCGAAUACUGCUGUAUAUCUC [A20G C34U U67A],0.17
5,UAACAGGGGGCCACAGCAGGAGCGUUCACGUCGCAGCCCUGGUCAGAUUCUGGUGAAUCUGCGAAAUCUGCUGUAUAUCUC [A20G C40U U41G U66A],0.24
6,UAACAGGGGGCCACAGCAGGAGCGUUCACGUAGCAGGCCCUGUCAGAUUCUGGGGAAUCUGCGAUUUCUGCUGUAUGUCUC [A20G C32A C37G U54G A65U A77G],0.07
7,UAACAGGGGGCCACAGCAGGAGCGUUCACGUCGCAGGCCCUGUCAGAUUCUGGUGAAUCUGCGAAUUCCGCUGUAUAUCUC [A20G C37G U69C],0.2
8,UAACAGGGGGCCACAGCAGGAGCGUUCACGUCGCAGCCCCUGUCAGAUUUUGGUGAAUCUGCGGGUUCUGCUGUAUAUCUC [A20G C50U A64G A65G],0.07
9,UAACAGGGGGCCACAGCAGGAGCGUUCACGUCGCAGCCCUUGUCAGAAUCUGGUGAAUCUGCGAAUUCUGCUGUAUAUCUC [A20G C40U U48A],0.17
10,UAACAGGGGGCCACAGCAGGAGCGUUCACGUCGCAGCCCCUGUCAGAUUGUGGUGAAUCUGCCAAUUCUGCUGUAUAUCUC [A20G C50G G63C],0.25
11,UAACAGGGGGCCACAGCAGGAGCGUUCACGUUGCAGCCCCUGUCAGAUUCUGGUGAAUCUGCGAAUUCUGCUGUAUAUCAC [A20G C32U U80A],0.31
12,UAACAGGGGGCCACAGCAGGAGCGUUCAUGUCGCAGCCCAUGUCAGAUUCUGGUGAAUCAGCGAAUCCUGCUGUAUAUCUC [A20G C29U C40A U60A U67C],0.12
13,UAACAGGGGGCCACAGCAGGAGCGUUCACGUUGCAGCCCCUGUCAGACUCUGGUGAAUCUGCGAAUUCUGCCGUAUAUCUC [A20G C32U U48C U72C],0.16
14,UAACAGGGGGCCACAGCAGGAGCAUUCACGUCGCAGCCCCUGUCAGAUUCUGGUGAAUCCGCGAAUUCUGCUGUACAUCUC [A20G G24A U60C U76C],0.09
15,UAACAGGGGGCCACAGCAGGAGCGUUCAGGUCGCAGCUCCGGUCAGAUUCUGGUGAAUCUGCGAAUUCUGCUGUAUAUCUC [A20G C29G C38U U41G],0.17
16,UAACAGGGGGCCACAGCAGGAGCGUUCAAGUCGCAGCCCCUGUCAGAUUCCGGUGAAUCUGCGAAUUCUGCAGUAUAUCUC [A20G C29A U51C U72A],0.14
17,UAACAGGGGGCCACAGCAGGAGCGUUCACGUCGCAGCCCCUGUGAGAUUCUGGUGGAUCUGCGAAUUCUGCCGUAUAUCUC [A20G C44G A56G U72C],0.52
